Measurements as given in US9765075B2, “Substituted bridged urea analogs as sirtuin modulators” (GLAXOSMITHKLINE LLC, priority 2013, dated 2017).
Substitutions are numbered along the chain they refer to. At least one compound was matched to its structure with a doubt left.

Key:
Test in all cases: SIRT1 activation dose-response, OAcADPr assay with Ac-p53(W5) substrate
Type in all cases: biochemical
full-length hSIRT1 WT = molecular target: T1, full-length hSIRT1 WT (Homo sapiens, UniProt Q96EB6)
T1 construct: Full-length human SIRT1 (hSIRT1) proteins were expressed with a C-terminal His6 tag; His6 (C); made in house
T1 sequence (Q96EB6 1-747): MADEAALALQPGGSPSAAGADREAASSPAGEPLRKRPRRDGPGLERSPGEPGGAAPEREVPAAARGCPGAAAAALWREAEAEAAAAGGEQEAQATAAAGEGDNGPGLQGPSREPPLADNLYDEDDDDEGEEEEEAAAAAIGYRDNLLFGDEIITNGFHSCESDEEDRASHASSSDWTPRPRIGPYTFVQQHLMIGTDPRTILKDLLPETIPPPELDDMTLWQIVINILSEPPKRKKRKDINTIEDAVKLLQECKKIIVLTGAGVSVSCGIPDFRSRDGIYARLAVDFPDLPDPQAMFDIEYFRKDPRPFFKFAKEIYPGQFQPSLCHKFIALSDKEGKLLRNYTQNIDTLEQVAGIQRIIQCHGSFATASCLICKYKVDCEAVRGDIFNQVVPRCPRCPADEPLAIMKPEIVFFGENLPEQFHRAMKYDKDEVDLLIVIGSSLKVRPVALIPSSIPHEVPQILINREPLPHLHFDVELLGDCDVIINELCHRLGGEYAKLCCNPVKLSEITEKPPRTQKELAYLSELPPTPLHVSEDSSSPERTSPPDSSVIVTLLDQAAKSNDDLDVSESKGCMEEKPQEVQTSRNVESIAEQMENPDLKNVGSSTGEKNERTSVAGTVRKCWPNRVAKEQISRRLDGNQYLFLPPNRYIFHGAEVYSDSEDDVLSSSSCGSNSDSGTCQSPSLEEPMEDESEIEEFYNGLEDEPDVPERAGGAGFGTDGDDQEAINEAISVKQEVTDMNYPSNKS

full-length hSIRT1 I223A = molecular target: T2, full-length hSIRT1 I223A (Homo sapiens, UniProt Q96EB6, I223A)
T2 construct: The following point mutants of full-length hSIRT1 were generated; His6 (C); made in house
T2 sequence (Q96EB6 1-747 I223A): T1 sequence (Q96EB6 1-747) with I223A

full-length hSIRT1 E230Q = molecular target: T3, full-length hSIRT1 E230Q (Homo sapiens, UniProt Q96EB6, E230Q)
T3 construct: His6 (C); made in house
T3 sequence (Q96EB6 1-747 E230Q): T1 sequence (Q96EB6 1-747) with E230Q

O=C(Nc1ccccn1)N1c2nc(-c3cccc(C(F)(F)F)c3)ccc2N2CC[C@H]1C2 [Example 7]
RVmax (maximum activation, relative velocity at infinite activator concentration) (full-length hSIRT1 WT): 7.16
RVmax (maximum activation, relative velocity at infinite activator concentration) (full-length hSIRT1 I223A): 1.89
RVmax (maximum activation, relative velocity at infinite activator concentration) (full-length hSIRT1 E230Q): 2.57

Cc1cnc2c(NC(=O)N3c4nc(-c5cccc(C(F)(F)F)c5)ccc4N4CC[C@H]3C4)cccc2n1 [Example 8]
RVmax (maximum activation, relative velocity at infinite activator concentration) (full-length hSIRT1 WT): 6.28
RVmax (maximum activation, relative velocity at infinite activator concentration) (full-length hSIRT1 I223A): 6.45
RVmax (maximum activation, relative velocity at infinite activator concentration) (full-length hSIRT1 E230Q): 2.72
